Inconclusive means that the source gave no clear call. Such entries were picked first, then a sample of the others. For some of these results: Potencies beside an inconclusive call are fits to weak or partial responses and may not hold up. Calls of active or inactive are those of the source. Unless noted, the call rests on the fitted dose curve; in most records, active means well fitted curve in the direction sought with a large enough effect; inconclusive means small, poorly fitted or top-dose-only effect, or another doubt; inactive means no such curve, though single readings can be large; an effect the other way counts as inactive or inconclusive.
What was measured:
[1] = target: 3',5'-cyclic-AMP phosphodiesterase 4B (Homo sapiens) (UniProt Q07343); experiment: qHTS Assay for Inhibitors of PDE-IV (AID 607; active means well fitted activation curve with a large enough effect in the main read-out, with a control signal flat, not every such curve was filed as active; inconclusive means small, poorly fitted or top-dose-only effect, or effect the other way, or a change in a side signal; further: potency means the concentration at half of the fitted maximal effect); details: HEK293 ACTOne CNG channel cells, membrane potential fluorescence; activation (PDE inhibition): at 22.9 µM (top of the series)
Procedure, shortened: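 ACTOne HEK293 cells carry a modified cAMP-gated CNG channel and express endogenous PDE4; plated 1000 cells/well, compounds up to 22.9 uM final. Membrane-potential dye fluorescence (ex 535/em 590) was read; parental cells received 10 uM forskolin + 100 uM RO 20-1724.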

[2] = target: Cytochrome P450 2C9 (Homo sapiens) (UniProt P11712); experiment: qHTS Assay for Inhibitors and Substrates of Cytochrome P450 2C9 (AID 883); details: recombinant CYP2C9, luciferin-H luminescence, 60 min; series mostly up to 57.1 µM; further: potency means the concentration at half of the fitted maximal effect; nearly all actives have a fitted effect of over 60% in size
Procedure, shortened: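 Turnover of Luciferin-H (100uM, KM) by 10nM human CYP2C9 was measured over 60 min at 37C with NADPH regeneration; inhibitors and some substrates reduce luminescence. Data normalized to sulphaphenazole 57uM.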

[3] = target: Dual specificity protein kinase CLK4 (Homo sapiens) (UniProt Q9HAZ1); experiment: qHTS Assay for Inhibitors of CDC-like Kinase 4 (ADP-FP Assay) (AID 1795); details: Transcreener ADP fluorescence polarization; series mostly up to 50 µM;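 further: recombinant human CLK4 phosphorylating RS repeat peptide at 1 µM ATP; potency means the concentration at half of the fitted maximal effect; nearly all actives have a fitted effect of over 60% in size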
Procedure, shortened: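 Clk4 6.25 nM; RS peptide 100 uM; ATP 1 uM; 25 mM Tris pH 7.5, 10 mM MgCl2; 1 h reaction. ADP detected via antibody/orange tracer FP displacement; TG003 positive control.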

[4] = AP1 Signaling Pathway (AID 357; active means well fitted curve in either direction with a large enough effect, not every such curve was filed as active; inconclusive means small, poorly fitted or top-dose-only effect, or another doubt; further: top concentration of the series differs between compounds; on the % scale 0 is the no-effect control and ±100 the full control effect); details: ME-180 AP-1-bla reporter, EGF-induced, beta-lactamase ratio, 5 h; at 7.69 µM (top of the series) unless noted
Procedure, shortened: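 AP-1-bla ME-180 cells with beta-lactamase reporter under AP-1 response element, stimulated with EC50 EGF; compounds titrated, 5 hours at 37 degrees Celsius. CCF4 read at 460/530 nm ratio; positive and negative modulators judged by AC50.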

[5] = target: Cytochrome P450 2D6 (Homo sapiens) (UniProt P10635); experiment: qHTS Assay for Inhibitors and Substrates of Cytochrome P450 2D6 (AID 891); details: recombinant CYP2D6, luciferin-ME EGE luminescence; series mostly up to 57.1 µM;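 further: luciferin methyl ether substrate demethylated by CYP2D6 with NADPH regeneration; nearly all actives have a fitted effect of over 60% in size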; further: potency means the concentration at half of the fitted maximal effect
Procedure, shortened: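 Human CYP2D6 (5 nM) with 30 uM Luciferin-ME EGE (at Km) in 100 mM KPO4, compound preincubated 10 min, then NADPH regeneration system for 60 min at room temperature. Luciferin read by luminescence; normalized to 1.43 uM quinidine.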

[6] = target: Mitogen-activated protein kinase 10 (Mus musculus) (UniProt Q61831); experiment: JNK3 AlphaScreen Assay (AID 530; active means well fitted curve in either direction with a large enough effect, not every such curve was filed as active; inconclusive means small, poorly fitted or top-dose-only effect, or another doubt;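 further: kinase came from lysate of stimulated human HepG2 cells; signal reports phosphorylation of biotinylated GST-cJun 1-79 at Ser73 with 10 µM ATP; potency means the concentration at half of the fitted maximal effect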); details: JNK3 lysate, c-Jun phosphorylation; activity change, negative = inhibition: at 57.1 µM (top of the series)
Procedure, shortened: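 Compound titrations were preincubated 15 minutes at room temperature with substrate, antibody and pre-activated JNK3-containing HepG2 lysate. Reactions were started with 10 uM ATP and stopped with EDTA-containing bead buffer for AlphaScreen detection.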

[7] = target: Ubiquitin carboxyl-terminal hydrolase 1 (Homo sapiens) (UniProt O94782); experiment: Inhibitors of USP1/UAF1: Pilot qHTS (AID 504865); details: purified USP1/UAF1, Ub-rhodamine cleavage fluorescence; series mostly up to 54.9 µM; further: potency means the concentration at half of the fitted maximal effect;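 further: rhodamine fluorescence freed from ubiquitin-rhodamine substrate followed over time; nearly all actives have a fitted effect of over 35% in size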; on activity change, negative = inhibition: top concentration of the series differs between compounds; on the % scale 0 is the no-effect control and ±100 the full control effect
Procedure, shortened: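 In 50mM HEPES pH 7.8 containing 0.5mM EDTA, 1mM TCEP, 0.1 mg/ml BSA and 0.01% Tween-20, 1nM USP1/UAF1 is exposed to compound for 15 min, then Ub-Rho (150nM final) is added and fluorescence is read over time.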

[8] = Primary redox qHTS assay for identification of artifact compounds. (AID 1845223); details: Amplex Red/HRP redox cycling with DTT, fluorescence; series mostly up to 53.8 µM; further: potency means the concentration at half of the fitted maximal effect
Procedure, shortened: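 Amplex Red (25 uM) and HRP (250 mU/mL) in HBSS, with compounds for 15 min, then 250 uM DTT for 30 min, room temperature, dark. Fluorescence 525/598 nm read; normalized to DMSO and 10 uM DA3003; Hill fit.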

[9] = NFAT Signaling Pathway (AID 444; active means well fitted curve in either direction with a large enough effect, not every such curve was filed as active; inconclusive means small, poorly fitted or top-dose-only effect, or another doubt;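 further: carbachol stimulus at about its EC50 of 1 µM final; on the % scale 0 is the no-effect control and ±100 the full control effect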); details: Jurkat NFAT-bla M1, carbachol, beta-lactamase ratio, 5 h; at 7.69 µM (top of the series) unless noted
Procedure, shortened: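 Read-out: CCF4 FRET ratio (460 nm/530 nm) after 1 h RT dye loading, used for %activity and AC50 from titration series. Cells: Jurkat NFAT-β-lactamase/M1 line, treated with compound plus 1 uM carbachol for 5 h, 37 °C.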

[10] = Primary fluorescence-based thiol-reactive (MSTI) qHTS assay for identification of artifact compounds. (AID 1845221); details: MSTI thiol-reactivity probe, 1 h; series mostly up to 53.8 µM;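 further: potency means the concentration at half of the fitted maximal effect; thiol-reactive compounds lower the probe fluorescence signal; nearly all actives have a fitted effect of over 65% in size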
Procedure, shortened: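 MSTI probe at 4 uM final in 2% DMSO/PBS pH 7.4; compounds, 1 h at room temperature in dark. Fluorescence Ex/Em 525/598 nm, normalised to Acetyl-MSTI and MSTI, fitted to 4-parameter Hill.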

[11] = qHTS Assay for Identification of Small Molecule Agonists for Hypoxia Response Element Signaling Pathway (AID 914; active means well fitted activation curve with a large enough effect in the signal ratio, with a control signal flat, not every such curve was filed as active; inconclusive means small, poorly fitted or top-dose-only effect, or effect the other way, or a change in a side signal; the % refers to the signal ratio; further: potency means the concentration at half of the fitted maximal effect); details: ME-180 HRE-bla reporter, beta-lactamase ratio, CoCl2, 17 h; activation: hits give high values
Procedure, shortened: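 ME-180 cells carrying an HRE-driven beta-lactamase reporter were treated with compounds in a titration series plus an EC50 level of CoCl2 for 17 h at 37 degrees Celsius; CCF4 readout as the 460nm/530nm ratio gave AC50 values.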

[12] = Stat Signaling Pathway (AID 446; active means well fitted curve in either direction with a large enough effect, not every such curve was filed as active; inconclusive means small, poorly fitted or top-dose-only effect, or another doubt;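 further: ME-180 cervical cancer cells given 40 pM IL-6 alongside compound; SIE-controlled beta-lactamase reporter measured as 460/530 nm FRET emission ratio; top concentration of the series differs between compounds; on the % scale 0 is the no-effect control and ±100 the full control effect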); details: ME-180 SIE beta-lactamase reporter, IL-6 stimulated, 5 h; at 7.69 µM (top of the series) unless noted
Procedure, shortened: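 ME-180 SIE-bla cells; overnight plating; cpd + IL-6 40 pM, 5 h, 37 C; LiveBLAzer 2.5 h RT; 460/530 nm emission ratio. Normalized to 300 pM IL-6 and 125 nM JAK inhibitor controls.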
Tags describe the fitted curve by direction and shape or compound fluorescence and quenching.

UniProt O94782, sequence (O94782 whole entry, looked up): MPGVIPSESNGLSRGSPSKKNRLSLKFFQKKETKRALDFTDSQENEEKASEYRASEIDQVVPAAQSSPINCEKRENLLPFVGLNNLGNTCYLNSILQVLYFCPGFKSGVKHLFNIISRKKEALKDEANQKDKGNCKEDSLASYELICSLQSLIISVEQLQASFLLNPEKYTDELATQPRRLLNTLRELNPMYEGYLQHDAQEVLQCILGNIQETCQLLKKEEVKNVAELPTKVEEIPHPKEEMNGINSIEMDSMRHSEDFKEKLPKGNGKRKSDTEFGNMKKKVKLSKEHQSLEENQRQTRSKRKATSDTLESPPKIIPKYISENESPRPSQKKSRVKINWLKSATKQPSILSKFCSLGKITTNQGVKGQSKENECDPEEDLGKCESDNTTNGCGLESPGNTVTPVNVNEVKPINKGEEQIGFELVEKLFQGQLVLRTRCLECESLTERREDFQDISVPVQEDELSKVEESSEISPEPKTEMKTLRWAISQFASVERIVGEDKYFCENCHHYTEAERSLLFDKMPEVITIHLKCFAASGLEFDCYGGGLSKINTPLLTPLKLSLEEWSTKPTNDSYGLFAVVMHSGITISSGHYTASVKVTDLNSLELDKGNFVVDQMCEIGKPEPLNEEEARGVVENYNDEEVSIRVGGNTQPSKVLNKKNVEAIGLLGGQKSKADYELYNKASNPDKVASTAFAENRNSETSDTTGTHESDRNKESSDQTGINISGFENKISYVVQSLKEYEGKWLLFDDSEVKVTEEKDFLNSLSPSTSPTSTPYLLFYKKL
UniProt P11712, sequence (P11712 whole entry, looked up): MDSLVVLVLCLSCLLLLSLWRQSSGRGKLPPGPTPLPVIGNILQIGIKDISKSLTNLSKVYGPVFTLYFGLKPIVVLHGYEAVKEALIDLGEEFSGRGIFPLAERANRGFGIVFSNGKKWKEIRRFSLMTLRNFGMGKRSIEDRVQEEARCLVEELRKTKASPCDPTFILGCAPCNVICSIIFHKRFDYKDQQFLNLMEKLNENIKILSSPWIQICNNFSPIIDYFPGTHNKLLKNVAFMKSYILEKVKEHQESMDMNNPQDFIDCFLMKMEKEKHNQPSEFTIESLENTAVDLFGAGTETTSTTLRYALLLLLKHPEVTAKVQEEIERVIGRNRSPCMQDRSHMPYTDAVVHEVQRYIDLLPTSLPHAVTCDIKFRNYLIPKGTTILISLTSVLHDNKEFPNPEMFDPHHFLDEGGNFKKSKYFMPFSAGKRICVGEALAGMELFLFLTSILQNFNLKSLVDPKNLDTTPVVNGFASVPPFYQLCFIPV
UniProt P10635, sequence (P10635 whole entry, looked up): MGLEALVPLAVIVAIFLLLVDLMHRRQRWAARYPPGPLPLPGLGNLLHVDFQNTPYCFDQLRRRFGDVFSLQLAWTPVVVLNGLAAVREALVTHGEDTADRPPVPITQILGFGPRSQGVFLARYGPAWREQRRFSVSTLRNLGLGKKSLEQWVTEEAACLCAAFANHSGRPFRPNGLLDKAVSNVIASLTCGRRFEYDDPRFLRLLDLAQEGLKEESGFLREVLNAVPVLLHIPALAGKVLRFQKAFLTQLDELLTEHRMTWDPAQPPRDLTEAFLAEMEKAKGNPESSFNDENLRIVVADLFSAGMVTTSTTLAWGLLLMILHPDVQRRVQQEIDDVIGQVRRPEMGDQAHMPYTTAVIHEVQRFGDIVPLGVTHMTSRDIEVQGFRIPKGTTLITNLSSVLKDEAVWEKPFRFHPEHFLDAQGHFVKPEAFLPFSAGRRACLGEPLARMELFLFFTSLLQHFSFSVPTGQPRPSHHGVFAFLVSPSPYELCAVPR
UniProt Q9HAZ1, sequence (Q9HAZ1 whole entry, looked up): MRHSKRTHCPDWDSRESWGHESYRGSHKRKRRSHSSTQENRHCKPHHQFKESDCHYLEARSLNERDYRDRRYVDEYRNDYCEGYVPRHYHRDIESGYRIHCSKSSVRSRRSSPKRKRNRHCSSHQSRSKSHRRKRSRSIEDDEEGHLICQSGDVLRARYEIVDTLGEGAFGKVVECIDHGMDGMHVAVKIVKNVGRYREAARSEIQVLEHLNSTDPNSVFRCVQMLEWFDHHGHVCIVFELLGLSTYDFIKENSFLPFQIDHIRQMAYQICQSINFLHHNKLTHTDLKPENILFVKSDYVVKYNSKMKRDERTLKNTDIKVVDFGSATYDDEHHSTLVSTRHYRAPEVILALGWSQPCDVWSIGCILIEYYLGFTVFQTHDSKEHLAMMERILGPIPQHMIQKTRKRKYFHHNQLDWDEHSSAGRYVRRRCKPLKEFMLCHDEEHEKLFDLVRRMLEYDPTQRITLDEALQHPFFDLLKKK
UniProt Q07343, sequence (Q07343 whole entry, looked up): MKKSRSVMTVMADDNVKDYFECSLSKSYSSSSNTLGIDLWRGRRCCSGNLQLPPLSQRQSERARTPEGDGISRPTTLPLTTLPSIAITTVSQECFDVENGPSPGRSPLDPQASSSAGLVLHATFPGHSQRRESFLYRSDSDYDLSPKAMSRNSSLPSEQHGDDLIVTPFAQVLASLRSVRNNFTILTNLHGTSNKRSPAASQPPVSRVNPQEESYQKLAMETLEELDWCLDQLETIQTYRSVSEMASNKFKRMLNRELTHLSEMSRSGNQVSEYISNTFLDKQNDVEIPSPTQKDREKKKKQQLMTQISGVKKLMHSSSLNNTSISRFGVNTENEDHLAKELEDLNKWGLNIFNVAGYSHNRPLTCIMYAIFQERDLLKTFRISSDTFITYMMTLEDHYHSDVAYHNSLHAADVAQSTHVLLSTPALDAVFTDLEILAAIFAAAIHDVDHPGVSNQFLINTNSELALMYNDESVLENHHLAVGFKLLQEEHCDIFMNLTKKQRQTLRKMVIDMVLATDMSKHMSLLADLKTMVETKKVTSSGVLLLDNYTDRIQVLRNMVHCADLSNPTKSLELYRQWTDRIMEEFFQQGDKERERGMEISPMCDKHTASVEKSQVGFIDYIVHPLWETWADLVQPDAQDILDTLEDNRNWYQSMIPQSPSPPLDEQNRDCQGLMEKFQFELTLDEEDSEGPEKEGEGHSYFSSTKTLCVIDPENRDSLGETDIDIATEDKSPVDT

O=c1cnc2cnc(Nc3ccccc3)nc2n1CCc1ccccc1
Potency [1]: active: 2.51 µM | Potency [2]: inconclusive: 0.251 µM [inhibitor, full curve] | Potency [3]: active: 0.0891 µM

Cc1noc(C)c1C(=O)N1CCC[C@@]2(CCN(c3ccccn3)C2)C1
activity change, negative = inhibition [4]: inactive: -5.91% | Potency [5]: inconclusive: 6.31 µM [inhibitor, partial curve]

N#C/C(=C\c1ccc(O)c(O)c1)C(N)=O
Potency [6]: inconclusive: 15.8 µM [inhibitor, partial curve] | Potency [7]: inconclusive: 44.7 µM [inhibitor, partial curve, poor fit]

CC(=O)OCC1(O)CCC2C(COC3OC(CO)C(O)C(O)C3OC(=O)/C=C/c3ccc(O)cc3)=COC(OC(=O)CC(C)C)C21 (configuration not stated)
Potency [8]: inconclusive: 7.07 µM [activator, partial curve, poor fit]

COCC(=O)N1CCC2(CC1)CN(Cc1ccccc1OC)C2
activity change, negative = inhibition [9]: inactive: 9.66%

C/C=C/C(O)C1OC(=O)CC1Nc1ccc(C(=O)O)cc1 (configuration not stated)
Potency [10]: inconclusive: 8.44 µM [inhibitor, partial curve] | Potency [8]: inconclusive: 26.7 µM [activator, single point]

COc1ccc(-n2c(=O)c(CCc3ccccc3)nc3cnc(N4CCNCC4)nc32)cc1
Potency [11]: active: 3.16 µM

Cn1cccc1C(=O)N1CCC2(CCN(Cc3ccccc3)CC2)CC1
activity change, negative = inhibition [9]: inconclusive: -71.3% [inhibitor]

O[C@@H]1[C@@H]2c3cc4c(cc3CN3CCC(=C[C@@H]1O)[C@H]23)OCO4
activity change, negative = inhibition [4]: inconclusive: -74.9% [inhibitor] [at 17.2 µM] | activity change, negative = inhibition [9]: inconclusive: -99.8% [inhibitor] [at 17.2 µM] | activity, negative = inhibition [12]: inconclusive: -69% [inhibitor] [at 17.2 µM] | Potency [11]: inconclusive: 2.51 µM [inhibitor, full curve] | Potency [7]: inactive

COc1cccc(NC(=O)/C=C\c2ccc(Cl)cc2)c1
Potency [6]: inconclusive: 10 µM [activator, partial curve] | Potency [2]: active: 10 µM | Potency [5]: inactive | Potency [7]: inconclusive: 25.1 µM [inhibitor, full curve]
